For this data set, the system named is human melanoma line A375 cells transplanted in mice. Kind of data set: Antitumor test (4). The following applies: A375 xenograft in nude mice, 3 and 10 mg/kg intravenous; for effect on tumor volume / tumor growth inhibitory effect: Day 14 (qd×1), FIG. 20; for notable signs such as weight loss in treated mice: qd×1. The format is in vivo, mouse. The procedure: Mouse: 5- to 6-week-old female BALB/c nude mice (Charles River Laboratories Japan, Inc.) were acclimatized for 4 to 7 days under SPF conditions before use in the experiment. The mice were fed with sterilized solid feed (FR-2, Funabashi Farms Co., Ltd) and given sterilized tap water (prepared by the addition of 5 to 15 ppm sodium hypochlorite solution).
Assay and calculation expression: In all studies, the major axis and minor axis of tumor were measured twice a week by using an electronic digital caliper (CD-15C, Mitutoyo Corp.), and the tumor volume (mm^3) was calculated. The calculation expression is as shown below. Tumor volume (mm^3)=½×Major axis (mm)×[Minor axis (mm)]^2
Human melanoma line A375 cells were purchased from ATCC (American Type Culture Collection). 8×10^6 cells suspended in physiological saline were subcutaneously transplanted to the right abdomen of each female nude mouse (Day 0), and the mice were randomly grouped at Day 14. The antibody-drug conjugates (3), (20), and (30) were each intravenously administered at each dose (3 and 10 mg/kg) to the tail of each mouse at Day 14 in a schedule of qd×1.
In the drawing, the line with open rhombuses depicts the results about untreated tumor, the dotted line with filled squares depicts the effect of the antibody-drug conjugate (3) administered at 3 mg/kg, the solid line with filled squares depicts the effect of the antibody-drug conjugate (3) administered at 10 mg/kg, the dotted line with filled triangles depicts the effect of the antibody-drug conjugate (20) administered at 3 mg/kg, the solid line with filled triangles depicts the effect of the antibody-drug conjugate (20) administered at 10 mg/kg, the dotted line with filled circles depicts the effect of the antibody-drug conjugate (30) administered at 3 mg/kg, and the solid line with filled circles depicts the effect of the antibody-drug conjugate (30) administered at 10 mg/kg.

B1: antibody-drug conjugate (3): M30-H1-L4P antibody conjugated with the compound of Process 5 of Example 2; average 3.4 drugs per antibody (conjugate)
heavy: QVQLVQSGAEVKKPGSSVKVSCKASGYTFTNYVMHWVRQAPGQGLEWMGYINPYNDDVKYNEKFKGRVTITADESTSTAYMELSSLRSEDTAVYYCARWGYYGSPLYYFDYWGQGTLVTVSSASTKGPSVFPLAPSSKSTSGGTAALGCLVKDYFPEPVTVSWNSGALTSGVHTFPAVLQSSGLYSLSSVVTVPSSSLGTQTYICNVNHKPSNTKVDKRV[omitted - human IgG1 Fc]
light: EIVLTQSPATLSLSPGERATLSCRASSRLIYMHWYQQKPGQAPRPLIYATSNLASGIPARFSGSGSGTDFTLTISSLEPEDFAVYYCQQWNSNPPTFGQGTKVEIKRTVAAPSVFIFPPSDEQLKSGTASVVCLLNNFYPREAKVQWKVDNALQSGNSQESVTEQDSKDSTYSLSSTLTLSKADYEKHKVYACEVTHQGLSSPVTKSFNRGEC
As to B1, the “effect on tumor volume” value is “remarkably decreased the tumor volume”, the “tumor growth inhibitory effect” value was “tumor growth inhibitory effect in a dose-dependent manner” and the “notable signs such as weight loss in treated mice” value (shortened to “notable signs such as weight loss”) was “free from notable signs such as weight loss”.

B2: antibody-drug conjugate (20): M30-H1-L4P antibody conjugated with the compound of Process 4 of Example 20; average 3.8 drugs per antibody (conjugate)
heavy: QVQLVQSGAEVKKPGSSVKVSCKASGYTFTNYVMHWVRQAPGQGLEWMGYINPYNDDVKYNEKFKGRVTITADESTSTAYMELSSLRSEDTAVYYCARWGYYGSPLYYFDYWGQGTLVTVSSASTKGPSVFPLAPSSKSTSGGTAALGCLVKDYFPEPVTVSWNSGALTSGVHTFPAVLQSSGLYSLSSVVTVPSSSLGTQTYICNVNHKPSNTKVDKRV[omitted - human IgG1 Fc]
light: EIVLTQSPATLSLSPGERATLSCRASSRLIYMHWYQQKPGQAPRPLIYATSNLASGIPARFSGSGSGTDFTLTISSLEPEDFAVYYCQQWNSNPPTFGQGTKVEIKRTVAAPSVFIFPPSDEQLKSGTASVVCLLNNFYPREAKVQWKVDNALQSGNSQESVTEQDSKDSTYSLSSTLTLSKADYEKHKVYACEVTHQGLSSPVTKSFNRGEC
Turning to B2, the “effect on tumor volume” value is given as “remarkably decreased the tumor volume”, the “tumor growth inhibitory effect” value is recorded as “tumor growth inhibitory effect in a dose-dependent manner” and the “notable signs such as weight loss” value is “free from notable signs such as weight loss”.

B3: antibody-drug conjugate (30): M30-H1-L4P antibody conjugated with the compound of Process 4 of Example 32 (KGGFG-(NH-DX)); average 3.2 drugs per antibody (conjugate)
heavy: QVQLVQSGAEVKKPGSSVKVSCKASGYTFTNYVMHWVRQAPGQGLEWMGYINPYNDDVKYNEKFKGRVTITADESTSTAYMELSSLRSEDTAVYYCARWGYYGSPLYYFDYWGQGTLVTVSSASTKGPSVFPLAPSSKSTSGGTAALGCLVKDYFPEPVTVSWNSGALTSGVHTFPAVLQSSGLYSLSSVVTVPSSSLGTQTYICNVNHKPSNTKVDKRV[omitted - human IgG1 Fc]
light: EIVLTQSPATLSLSPGERATLSCRASSRLIYMHWYQQKPGQAPRPLIYATSNLASGIPARFSGSGSGTDFTLTISSLEPEDFAVYYCQQWNSNPPTFGQGTKVEIKRTVAAPSVFIFPPSDEQLKSGTASVVCLLNNFYPREAKVQWKVDNALQSGNSQESVTEQDSKDSTYSLSSTLTLSKADYEKHKVYACEVTHQGLSSPVTKSFNRGEC
On to B3, for which the “effect on tumor volume” value is on record as “remarkably decreased the tumor volume”, the “tumor growth inhibitory effect” value is reported as “tumor growth inhibitory effect in a dose-dependent manner” and the “notable signs such as weight loss” value is given as “free from notable signs such as weight loss”.
